Assay results as given in publication PMC4336329 (PLoS ONE, 2015).
The whole screen tested about 310,000 compounds, of which about 2,200 (0.71%) showed an effect of 50% or more. The effect is printed as a negative number. This is one part of the list.

biological target: human ether-à-go-go-related gene (hERG) potassium channel (human, UniProt Q12809); test: primary screen, population patch clamp on CHO cells stably expressing hERG
Sequence (Q12809 whole entry, looked up): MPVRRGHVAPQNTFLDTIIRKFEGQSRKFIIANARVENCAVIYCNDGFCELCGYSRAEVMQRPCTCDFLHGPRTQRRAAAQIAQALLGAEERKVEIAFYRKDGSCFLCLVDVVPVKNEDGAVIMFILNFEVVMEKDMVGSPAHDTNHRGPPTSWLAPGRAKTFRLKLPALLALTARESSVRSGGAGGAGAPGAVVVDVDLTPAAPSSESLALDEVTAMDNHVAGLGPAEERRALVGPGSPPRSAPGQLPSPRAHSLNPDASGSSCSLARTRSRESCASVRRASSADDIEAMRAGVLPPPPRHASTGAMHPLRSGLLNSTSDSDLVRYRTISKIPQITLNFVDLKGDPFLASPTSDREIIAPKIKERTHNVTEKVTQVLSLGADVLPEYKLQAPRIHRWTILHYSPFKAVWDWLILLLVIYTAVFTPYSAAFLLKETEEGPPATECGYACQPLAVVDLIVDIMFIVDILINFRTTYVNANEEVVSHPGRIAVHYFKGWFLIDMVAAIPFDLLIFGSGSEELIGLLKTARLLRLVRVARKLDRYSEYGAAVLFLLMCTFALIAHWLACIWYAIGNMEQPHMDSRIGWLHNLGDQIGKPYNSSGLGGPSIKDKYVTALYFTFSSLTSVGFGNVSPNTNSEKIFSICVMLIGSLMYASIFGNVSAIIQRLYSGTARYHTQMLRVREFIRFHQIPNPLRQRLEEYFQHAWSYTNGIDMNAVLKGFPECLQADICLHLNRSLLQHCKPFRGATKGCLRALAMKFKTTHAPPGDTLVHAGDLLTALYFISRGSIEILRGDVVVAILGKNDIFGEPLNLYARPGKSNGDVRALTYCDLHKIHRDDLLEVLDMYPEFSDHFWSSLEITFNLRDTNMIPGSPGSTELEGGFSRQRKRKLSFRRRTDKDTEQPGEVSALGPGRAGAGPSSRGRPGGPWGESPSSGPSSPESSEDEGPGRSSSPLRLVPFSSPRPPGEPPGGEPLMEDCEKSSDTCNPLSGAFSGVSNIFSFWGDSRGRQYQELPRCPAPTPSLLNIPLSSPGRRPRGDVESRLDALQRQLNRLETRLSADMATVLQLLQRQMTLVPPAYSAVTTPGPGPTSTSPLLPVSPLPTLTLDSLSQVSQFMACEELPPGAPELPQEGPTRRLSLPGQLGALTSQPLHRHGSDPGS

| Compound | hERG current change (%, negative = inhibition) at 1uM |
| --- | --- |
| COc1ccc2nc(NCc3cccnc3)sc2c1 | 8.85% |
| Cc1noc(C)c1C1(O)CCCCCCCCCCC1 | 17.4% |
| Cc1ccccc1N(C)S(=O)(=O)c1nnc(NC(=O)c2ccco2)s1 | 7.69% |
| COCCNC(=S)N1CCN(c2nc(-c3cccc(OC)c3)cs2)CC1 | 12.8% |
| COc1ccc2[nH]c(O)c(N=NC(=O)c3ccc(NS(=O)(=O)c4cccs4)cc3)c2c1 | 7.5% |
| COc1ccc(NC(=O)N2CCc3ccccc3C2)cc1OC | 8.34% |
| COc1ccc(C2NC(=O)NC(O)(C(F)(F)F)C2C(=O)c2ccc(C)cc2)cc1 (stereo not drawn) | 4.43% |
| CCC(=O)N1CCc2cc(S(=O)(=O)CCC(=O)N(C)c3ccc(OC)cc3OC)ccc21 | 11% |
| COc1ccc2c(c1)C(C)CC(C)(C)N2C(=O)CSc1ncn[nH]1 (stereo not drawn) | -0.0177% |
| CN(CCCNS(=O)(=O)c1cccc2cccnc12)Cc1ccccc1 | 4.6% |
| Cc1ccc(-c2nc(NCc3ccco3)c3ccccc3n2)cc1 | -1.09% |
| Cc1ccc(-n2c(SCC(=O)NCC3CCCO3)nc3ccccc3c2=O)cc1C (stereo not drawn) | 13.1% |
| COC(=O)c1c(-c2c(Cl)cccc2Cl)noc1C(=O)NNC(=O)N(C)C | 13.6% |
| CCc1nn(C(C)C(=O)NCc2cccc(OC)c2)c(=O)c2cc3occc3n12 (stereo not drawn) | 0.704% |
| CCc1ccc(/C(C)=N/NC(=O)c2ccc(-n3cnnn3)cc2)cc1 | 5.97% |
| Cc1ccc(C(=O)NNC(=O)CCn2nnc3ccccc32)cc1 | 23.2% |
| O=c1cc(CCl)nc2sc3ccccc3n12 | 12.1% |
| CN(C)CCCN(C(=O)c1ccc(S(=O)(=O)N2CCCCCC2)cc1)c1nc2c(F)cc(F)cc2s1.Cl | 5.63% |
| COc1ccc(N(CC(=O)NCC2CCCO2)S(=O)(=O)c2ccccc2)cc1OC (stereo not drawn) | 15.3% |
| COc1ccc(NC(=O)NCCc2ccc(Cl)cc2)cc1OC | 6.66% |
| COc1ccc(Cn2c(=S)[nH]c3ccccc3c2=O)cc1 | 12.5% |
| O=C(C1CC1)N1CCc2cc(Br)cc(S(=O)(=O)NCCCN3CCCC3)c21 | 14.4% |
| O=C(NCCN1CCCCC1)Nc1cccc(C(F)(F)F)c1 | -15.8% |
| Cc1ccccc1N1CC(O)(c2ccccc2)[N+]2=C1SCC2.[Br-] (stereo not drawn) | 8.02% |
